The labels stand for the following.
B1: DOMAIN_16806 (protein, listed as Sapajus apella)
chain: MVSFEDVAVLLSQEEWDCLIPAQRGLYRDVMLETYGNLVSLGLQASKPDVISRLEQGDEPWTTHTLRMQGSWSWRHKREGC
B2: DOMAIN_12517 (protein, listed as Lynx canadensis)
chain: LLQESLTLEDVAVDFTQEEWRLLAPAQKDLYRDVMLENFRNLVSVGYVASMPAALSRLERGGRWMTEDETRRGICPEIKKD
B3: DOMAIN_12499 (protein)
chain: QILESLTFQDVAVDFTREEWDQLYPAQKNLYRDVMLENYRNLVALGHQLYKPEVITQLEQEERWMMGRVSPPDTHPDGENR
modifications: Muntiacus muntjak
B4: DOMAIN_12313 (protein, listed as Bos indicus)
chain: SVTFEDVAVYFSWEEWALLDEAQRCLYHDVMLENFALTSSLGCWHGAEDKGAPSEKSISVEGVSQIKTLKADSCPQKGQPF
B5: DOMAIN_12261 (protein, listed as Neophocaena asiaeorientalis)
chain: PQKSVTFEDVAVYFTQTEWDGLSPAQRALYRDVMLENYGNVASLGFPLLKPTVISQLEGGGELEGPSPLTSGTGTGHQGLW
B6: DOMAIN_12467 (protein, listed as Gorilla sp.)
chain: AQTLLTFRDVAIEFSLEEWKCLDLAQQNLYRDVMLENYRNLFSVGLTVSKPGLITCLEQRKEPWNVKRQEAADGHPAMSSC
B7: DOMAIN_12320 (protein)
chain: SVMFSDVSIDFSLEEWEFLNLEQRDLYRDVMLENYSNLVSLGCFISKPDVISLLEQGKEPWKVVRQGRRQYPDLETNYEIK
modifications: Muntiacus muntjak
B8: DOMAIN_12508 (protein, listed as Gorilla sp.)
chain: KSMVTFEDVAVYFSQEEWELLDAAQRHLYHSVMLENLELVTSLGCWHGVEGEEAHPEQNVSVEVLQVRIPNADPSTKKANS
B9: DOMAIN_12395 (protein, listed as Ailuropoda melanoleuca)
chain: QSLVTFGDVAVDFSREEWEWLNSAQRTLHRDVMLENYRNLVSLGLCVSKPDMISSLEQRKEPWMLKRKLTRGRCPDLKTMQ
B10: DOMAIN_12498 (protein)
chain: QAEVTFEDVAVLLSQEEWGLLGPSQKGLYREVMLETYRNLLSLGAGLADPKPEVIVQLERGDELWVLDMHGAEQPSVDGSA
modifications: Muntiacus muntjak
B11: DOMAIN_12214 (protein)
chain: GLVMFKDVAIDVSQEEWECLNPAQRNLYKDVMLENYSNLVSLGLSVSKPAMITSLEQGKEPWMVLREVTGERCPDLVSKCE
modifications: Muntiacus muntjak
B12: DOMAIN_12463 (protein, listed as Ailuropoda melanoleuca)
chain: RPRAVKFADVAVYFSPEEWGCLRPAQRALYRDVMRETYGHLGALGCAGPKPALISWLERNTDEWEPAALDPRECPRGVTVQ
B13: DOMAIN_12365 (protein)
chain: SYEGSVSFRDVAIDFSREEWRHLDLSQRNLYRDVMLETYSHLLSVGYQVPEAEVVMLEQGKEPWALQGERPRHSCPGEKLW
modifications: Nomascus leucogenys
B14: DOMAIN_12511 (protein, listed as Gorilla sp.)
chain: MALVTFRDVAIDFSQKEWECLDTTQRKLYRDVMLENYNNLVSLGYSGSKPDVITLLEQGKEPCVAARDVTGRQCPGLLSRH

Data on 14 molecules can be found in patent publication US12551573B2, “Compositions and methods for the targeting of PCSK9” (Scribe Therapeutics Inc., priority 2022, dated 2026).

One test concerns HBEGF locus. Type of test: cell-based, human. The conditions noted are these: high-throughput screen of dXR repression of the HBEGF gene; change in abundance of each domain in the library before and after diphtheria toxin selection.
In the case of B1, the “Log2 (fold change)” value amounted to 3.9386.

Staying with this test, now noted: repressor domain in dXR, repression of the HBEGF gene; abundance of domain in library after vs before diphtheria toxin selection.
With B2, the “Log2 (fold change)” value was 2.6983.
With B3, the “Log2 (fold change)” value stood at 2.2932.
In the case of B4, the “Log2 (fold change)” value is 2.6903.
For B5, the “Log2 (fold change)” value worked out at 2.7989.
In the case of B6, the “Log2 (fold change)” value amounted to 2.9575.
As for B7, the “Log2 (fold change)” value was determined as 2.5075.
On to B8, for which the “Log2 (fold change)” value was 3.0173.
Regarding B9, the “Log2 (fold change)” value is reported as 3.1504.
Regarding B10, the “Log2 (fold change)” value came to 2.8947.
In the case of B11, the “Log2 (fold change)” value is recorded as 2.613.
As for B12, the “Log2 (fold change)” value amounted to 3.2567.
In the case of B13, the “Log2 (fold change)” value stood at 3.5626.
Take B14: the “Log2 (fold change)” value amounted to 3.0694.
